The list shows a part of the results.

The chains are these.
B1: chr10:50307981:50308148:-|CDS|ENSG00000198964|control|control|control (ssRNA)
RNA: GGGAGUUCUACAGUCCGACGAUCCUGGUGGUAUCACUGGAUUUGCUGGCUUCUCAGCGUAGUUGGAAUCUUCUGUAUUCUCUUAGCGCAUGACCACUACACUGUGGACGUGGUGGUGGCAUAUUACAUCACCACGAGACUCUUCAACAGAGGAUUGAGCAUCA
B2: chr3:197282668:197282805:-|CDS|ENSG00000075711|msi1|FALSE|unique (ssRNA)
RNA: GGGAGUUCUACAGUCCGACGAUCUGGGAGAUUUCCAGCCUUCCAAGCUCUACUGUGACUUCAGAGACACUGCCAAGCAGCCUUAGCCCUAGUGUAGAGGUGAGAUAAAAAAUGUGUUCUGAAGCUGUUUUUUGGUGAUCAAUUCAACAGAGGAUUGAGCAUCA
B3: chr9:115020670:115020933:-|3pUTR|ENSG00000041982|msi1|FALSE|unique (ssRNA)
RNA: GGGAGUUCUACAGUCCGACGAUCCUUCUCUUAGGUGGCUCUGGGAAUGGGAGAGGGGUAGGAUGUACAGGGGUAGUUUGUUUUAGAACCAGCCGUAUUUUACAUGAAGCUGUAUAAUUAAUUGUCAUUAUUUUUGUUAGCAAACAACAGAGGAUUGAGCAUCA
B4: chr3:194355248:194359297:-|three_prime_utr|ENSG00000172061|control|control|control (ssRNA)
RNA: GGGAGUUCUACAGUCCGACGAUCCUCUUUCUGGCCCCAGAGAAAGGUGAGCCUACCUCUUCCUGACUUGCCUGAUUCUCCCGUAGAGAAGCAGGUCGUGCCGGACCUUCCUACAAUCAGGAAGAUAGAUCCAACUGGCCAUGGCAACAGAGGAUUGAGCAUCA
B5: chr1:215620365:215620495:+|CDS|ENSG00000136636|unk|FALSE|unique (ssRNA)
RNA: GGGAGUUCUACAGUCCGACGAUCGGUUUUUCAGAAUCCAAGAAAAGGUCAUCAGAAGAUGAAAAUGAAAAUAAAAUAGAGUUUAGGAAGAAAGGAGGAUUUGAAGGGGGAGGAUUCCUUGGAAGAAAGAAAGUUCCCUAUCUGCAACAGAGGAUUGAGCAUCA
B6: chr3:179570125:179570235:+|CDS|ENSG00000136518|unk|total|mutant (ssRNA)
RNA: GGGAGUUCUACAGUCCGACGAUCAAGCACAUUAAUGGAAACCGAUGGCGAUAAAGGCAAACAAGGCGGUCCCACCUACUACACCGAUACUAAUGCUCUGCGUGUUCCGAGGGAGAAUAUGGAGGCCAUUUCACCUCUAAAAAACAACAGAGGAUUGAGCAUCA
B7: chr12:132079871:132079972:+|3pUTR|ENSG00000183495|msi1|total|mutant (ssRNA)
RNA: GGGAGUUCUACAGUCCGACGAUCAGAUGCUACCGUUGACCUGAGUUAAAUUCAUUCCGUCGUGUACGUAAAAACUCUCCUUUCCGUGUGUUAUUUUCUUGGCCUUCCCUUUUAAAGGUUAAAGUUUCUAACCUAAGAAUUAAGCAACAGAGGAUUGAGCAUCA
B8: chr19:12699786:12699848:-|3pUTR|ENSG00000105576|msi1_unk|total|mutant (ssRNA)
RNA: GGGAGUUCUACAGUCCGACGAUCCCUGCUCCAUCCAUCCCUCCUGGGCGCCAGACCCUCCAUCCAAGCCCUGUGUCUUUCCACCGUCAGGGUCAGGCCCUGCAUCUAUUCCAAGGGGCACUCAGUACACAUUCCAUAAAUCCGCAACAGAGGAUUGAGCAUCA
B9: chr1:233671823:233671924:+|3pUTR|ENSG00000135750|msi1|FALSE|unique (ssRNA)
RNA: GGGAGUUCUACAGUCCGACGAUCUGCUGCUGUGGUUAGAAGCAGAUUUUAUACUUUUAACUGGAAACUUUGGGGUUUGCAUUUAGAUCAUUUAGCUGAUGGCUAAAUAGCAAAAUUUAUAUUUAGAAGCAAAAAAAAAAAGCACAACAGAGGAUUGAGCAUCA
B10: chr7:106091418:106091523:-|3pUTR|ENSG00000008282|msi1|total|mutant (ssRNA)
RNA: GGGAGUUCUACAGUCCGACGAUCUUUACACCUUAAGCCUUAACAUGUAUCUUCAUUCAGAAAACAGUUAUAUUGUCAUACCACCGCCGGAAGAAAAACCUUUAUUUGGAAUAUACACUACUGUAAGUUUGUACAGAUCAUAUACAACAGAGGAUUGAGCAUCA
B11: chr3:130733575:130733676:-|CDS|ENSG00000196455|msi1|FALSE|unique (ssRNA)
RNA: GGGAGUUCUACAGUCCGACGAUCCGUCAAAGAGGUUCCUCGUAAUGAUAUCAAUAUUUAUCCGGAAUACAUUCUGCCAGGCAUAGCCCACUUAGCCCAAGAUGAUGCUACUAUCGUUAGACUAGCCUAUGCUGGUAAGAGUUUCAACAGAGGAUUGAGCAUCA
B12: chr6:36855602:36855703:-|3pUTR|ENSG00000137168|msi1|FALSE|unique (ssRNA)
RNA: GGGAGUUCUACAGUCCGACGAUCGUCAUGAAGCUUAGGAGGCCUGGCAUCUUGGGUGAGUUAGAGAUGGAAGUACAUUUUAAUAGGAUGCUUCUUUUCUCUUCCCCCAGUGCCUAGGUUGCCAGAGCAUUUGCACAAAUGCCCCAACAGAGGAUUGAGCAUCA
B13: chr7:92086252:92086353:+|CDS|ENSG00000127914|msi1|FALSE|unique (ssRNA)
RNA: GGGAGUUCUACAGUCCGACGAUCUCAUGAGAGCUUCUCAGACUGGCGAGGUGAACUACUGCUUGCCCUUCAACAAGUUUUCUUAGAAGAGCGUAGUGUUUUACUAGCAGCAUUUCGGACGGAGCUGACAGCUCUAGGUACUACCAACAGAGGAUUGAGCAUCA
B14: chr12:30637093:30637194:-|CDS|ENSG00000133704|unk|total|mutant (ssRNA)
RNA: GGGAGUUCUACAGUCCGACGAUCUGUCUACAUUUUUUUUUUCUUCAAAAUUUGCAGGCAUCAUGACCGGAAGAUGUGUAUAACCGGACUGAGUAUCCUUUUGGAAUUGCAAAAUCGACCUCCUGCAGCCGAUGCUGUGGUGGGCAACAGAGGAUUGAGCAUCA
B15: chr3:49657245:49657349:+|CDS|ENSG00000164061|unk|FALSE|unique (ssRNA)
RNA: GGGAGUUCUACAGUCCGACGAUCCAGCCGUAGUGGCAUCAAGAAGCGGCACUCCAUGCCACGCCUGCGGGAUGCCUGUGAGCUAGAGUCUGGGACUGAGCCCUGUGUGGUCAGGAGGAUUGCCGACAGCAGCGUGCAGACAGACAACAGAGGAUUGAGCAUCA
B16: chr6:125978377:125978478:+|3pUTR|ENSG00000111911|unk|total|mutant (ssRNA)
RNA: GGGAGUUCUACAGUCCGACGAUCAAUUUUGCCUCUAAUAACAUAAAGGGGGAAGAAACAUAAAGUGGUUCUCUUAAUAAAACCCGCAGAAAAUGUUGCUUUAUGGCAUGUUUUUGUAUCAAAGAGAAAUCAGAGGUUAAACUUCAACAGAGGAUUGAGCAUCA
B17: chr2:40113585:40113686:-|3pUTR|ENSG00000183023|msi1|total|mutant (ssRNA)
RNA: GGGAGUUCUACAGUCCGACGAUCUCAUUUUAUUUUUUUACUUAAAAGGCUAUUUUGAGCCCUGUUUCUUUCACUGUCCAGUCCCGUCCUCUUUGAUUAUAUCAGCCGUUGCUGAGUAAGAAAGAAGCCAGGGUGACCAACGGGCAACAGAGGAUUGAGCAUCA
B18: ENSG00000100393:stop:overlap|stop_codon|ENSG00000100393|stop_codon|NA|stop_codon (ssRNA)
RNA: GGGAGUUCUACAGUCCGACGAUCUCAGCACCGAUAACUCAGACUUGAAUUCAAACCUCUCACAGAGUACACUAGACAUACACUAGAGACACCUUGUAGUAUUUUGGGAGCAAAAAAAUUAUUUUCUCUUAACAAGACUUUUUGCAACAGAGGAUUGAGCAUCA
B19: chr10:78035461:78035635:+|CDS|ENSG00000138326|unk|total|mutant (ssRNA)
RNA: GGGAGUUCUACAGUCCGACGAUCCAUUGAUGUCCUUCACCCCGGGAAGGCGACAGUGCCUAAGACAGAAAUUCGGGAAAAACCCGCCAAAAUGUACAAGACCACACCGGAUGUCAUCUUUGUAUUUGGAUUCAGAACUCAUUUCAACAGAGGAUUGAGCAUCA
B20: chr7:93926053:93926159:+|CDS|ENSG00000127920|unk|total|mutant (ssRNA)
RNA: GGGAGUUCUACAGUCCGACGAUCGUCUAAAUGUUCUGAAGAAAUAAAGAACUAUAUUGAAGAACGUUCUGGAGAGGAUCCUCCCGUAAAGGGAAUUCCAGAAGACAAGAACCCCUUUAAAGAAAAAGGCAGCUGUGUUAUUUCCAACAGAGGAUUGAGCAUCA
B21: ENSG00000198589:be:win_5201|CDS|ENSG00000198589|bound_else_gene|NA|bound_elsewhere_windowed (ssRNA)
RNA: GGGAGUUCUACAGUCCGACGAUCCAGUCUCACCUUCCACCUUUAAUACAAGCAUACCUACCAAUGCUGUCAGUGUGGUUUCCUCAGUAGAUUCAGCCCAAGCCUCAGAUAUGGGAGGAGAAUCACCAGGCAGUAGAUCAUCUACAACAGAGGAUUGAGCAUCA
B22: chr1:27823432:27823533:+|3pUTR|ENSG00000117758|unk|FALSE|unique (ssRNA)
RNA: GGGAGUUCUACAGUCCGACGAUCUUUCAAUAAAAUUACUGUCUUGUAAUAUAAAUGUUGUCCACUUCCCUUUUCCACAGGCCUAGAACAGUUAAAGGGAACAUAAUUUGUUUAGGCUCCCACAUAAAUGUGAAUCUGGCCAACCAACAGAGGAUUGAGCAUCA

In this experiment the target is MSI1 full-length (mouse, UniProt Q61474 1-362). The experiment in a line: nsRBNS (natural sequence RNA bind-n-seq); RBNS binding buffer (assumed for nsRBNS): 25 mM Tris pH 7.5, 150 mM KCl, 3 mM MgCl2, 0.01% Triton X-100, 500 ug/ml BSA, 20 U/ml SUPERase-In, 4 C; UNK is unkempt and MSI1 is Musashi-1; names of the RNAs are library labels; protein concentration not given here; high values mean tight binding.
UniProt Q61474, sequence (Q61474 whole entry): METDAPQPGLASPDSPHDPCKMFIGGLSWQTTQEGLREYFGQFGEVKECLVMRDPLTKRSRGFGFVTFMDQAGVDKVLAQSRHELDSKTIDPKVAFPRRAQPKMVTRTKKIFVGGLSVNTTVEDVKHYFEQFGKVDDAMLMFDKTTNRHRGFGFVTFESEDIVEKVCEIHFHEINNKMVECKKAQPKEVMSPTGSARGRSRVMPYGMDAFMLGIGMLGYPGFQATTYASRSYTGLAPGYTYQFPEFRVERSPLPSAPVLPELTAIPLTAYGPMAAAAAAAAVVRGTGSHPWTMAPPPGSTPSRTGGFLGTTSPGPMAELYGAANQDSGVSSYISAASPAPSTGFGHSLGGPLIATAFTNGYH
On to B1, for which the binding signal came to 0.406 enrichment R.
The molecule B2 had a binding signal of 3.02 enrichment R.
The same measure for B3: 4.36 enrichment R; for B4: 0.351 enrichment R.
The same measure for B5: 1.85 enrichment R; for B6: 0.428 enrichment R.
In turn, B7 had a binding signal of 0.276 enrichment R.
The same measure for B8: 0.796 enrichment R; for B9: 4.72 enrichment R; for B10: 0.843 enrichment R.
The same measure for B11: 2.89 enrichment R; for B12: 0.88 enrichment R; for B13: 0.358 enrichment R.
B14 returned a binding signal of 0.267 enrichment R.
The value for B15 was 0.478 enrichment R.
The value for B16 was 0.246 enrichment R; that for B17 was 0.413 enrichment R.
B18 gave a binding signal of 0.393 enrichment R.
The value for B19 was 0.343 enrichment R.
The same measure for B20: 0.282 enrichment R; for B21: 2.3 enrichment R; for B22: 0.461 enrichment R.

Values taken from PMC12136788.
